From the supplement of paper PMC12067230
This is a noisy data set.

experiment: amyloid nucleation score relative to library mode (yeast Sup35 reporter selection) (log enrichment difference); higher = more amyloid nucleation; sequences are the first 22 residues of the Bri2 peptide extended by up to 12 random residues; settings: random library (experiment): 2;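 active = nucleation score significantly above 0 at FDR 0.05; inactive = not significantly above 0 or absent from output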
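Further: [psi-pin-] Saccharomyces cerevisiae expressing SupN fusions, induced by 100 µM Cu2SO4, selected 7 d at 30 °C without adenine and uracil, scored by deep sequencing of output versus input.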

| Sequence | amyloid nucleation score |
| --- | --- |
| EASNCFAIRHFENKFAVETLICILPGSCFFWNLL | 5.9 |
| EASNCFAIRHFENKFAVETLICILQFTI | inactive |
| EASNCFAIRHFENKFAVETLICILQVCLPLKLEE | inactive |
| EASNCFAIRHFENKFAVETLICILSFTRHVTAGY | inactive |
| EASNCFAIRHFENKFAVETLICILSIAYFFEAPE | inactive |
| EASNCFAIRHFENKFAVETLICILSVIML | inactive |
| EASNCFAIRHFENKFAVETLICILTSAWRNVSC | inactive |
| EASNCFAIRHFENKFAVETLICILTYVFSVDCYD | inactive |
| EASNCFAIRHFENKFAVETLICILVIGDPLLDIW | inactive |
| EASNCFAIRHFENKFAVETLICILWFVNCIFVLE | inactive |
| EASNCFAIRHFENKFAVETLICILYFGCGSMFTL | inactive |
| EASNCFAIRHFENKFAVETLICILYLLKRGDVSF | inactive |
| EASNCFAIRHFENKFAVETLICILYSFYVVLFVG | inactive |
| EASNCFAIRHFENKFAVETLICIMCCFCYYSRFG | 3.29 |
| EASNCFAIRHFENKFAVETLICIMEYEYLSKCVC | -0.315 |
| EASNCFAIRHFENKFAVETLICIMEYVLARIHGR | inactive |

| Sequence | amyloid nucleation score |
| --- | --- |
| EASNCFAIRHFENKFAVETLICIMGLRRDHYICW | inactive |
| EASNCFAIRHFENKFAVETLICIMNTQLQGVWFC | inactive |
| EASNCFAIRHFENKFAVETLICIMVVMAGRQYVW | inactive |
| EASNCFAIRHFENKFAVETLICIMVWV | -0.482 |
| EASNCFAIRHFENKFAVETLICINADNWCDLYSY | 6.74 |
| EASNCFAIRHFENKFAVETLICINATI | inactive |
| EASNCFAIRHFENKFAVETLICING | inactive |
| EASNCFAIRHFENKFAVETLICINGIFVHITLAC | inactive |
| EASNCFAIRHFENKFAVETLICINLLSFGRWWEE | 7.01 |
| EASNCFAIRHFENKFAVETLICINNLRWVLTCMW | inactive |
| EASNCFAIRHFENKFAVETLICINRLFLSFVSVC | inactive |
| EASNCFAIRHFENKFAVETLICINRSTFFYFLVH | inactive |
| EASNCFAIRHFENKFAVETLICINSGAEVVWGHW | 3.41 |
| EASNCFAIRHFENKFAVETLICINYRSHKNTVGR | inactive |
| EASNCFAIRHFENKFAVETLICIPERAYLMQILR | inactive |

same assay, conditions: random library (experiment): 3

| Sequence | amyloid nucleation score |
| --- | --- |
| EASNCFAIRHFENKFAVETLICIKPGVRRNTSFR | 1.9 |
| EASNCFAIRHFENKFAVETLICILALMTTRRGLG | inactive |
| EASNCFAIRHFENKFAVETLICILCLFNCEMIVR | 0.0556 |
| EASNCFAIRHFENKFAVETLICILFWTWYERLSK | inactive |
| EASNCFAIRHFENKFAVETLICILGSRLRNCYEG | inactive |
| EASNCFAIRHFENKFAVETLICILGTLVSRVIFM | 0.711 |
| EASNCFAIRHFENKFAVETLICILIYRCRIKM | inactive |
| EASNCFAIRHFENKFAVETLICILLWFTDGRNGK | 3.13 |
| EASNCFAIRHFENKFAVETLICILMC | 3.74 |
| EASNCFAIRHFENKFAVETLICILSNLTDKSDVL | 6.13 |
| EASNCFAIRHFENKFAVETLICILV | inactive |
| EASNCFAIRHFENKFAVETLICILVTVMFFNRFS | inactive |
| EASNCFAIRHFENKFAVETLICILWR | inactive |
| EASNCFAIRHFENKFAVETLICILYLCTSYFVKR | inactive |
| EASNCFAIRHFENKFAVETLICIMAGYGTTRRSR | 3.83 |
| EASNCFAIRHFENKFAVETLICIMAREYGGDRGL | 2.86 |
| EASNCFAIRHFENKFAVETLICIMAYALRPQSAF | inactive |
| EASNCFAIRHFENKFAVETLICIMEPSLADPVLR | inactive |
| EASNCFAIRHFENKFAVETLICIMITEVASGRVR | -0.203 |
| EASNCFAIRHFENKFAVETLICIMKMDLGMLVQL | inactive |
| EASNCFAIRHFENKFAVETLICIMMMSVSEQWYR | inactive |
| EASNCFAIRHFENKFAVETLICIMSSHT | 2.75 |
| EASNCFAIRHFENKFAVETLICIMTDQCWGTAGT | 3.59 |
| EASNCFAIRHFENKFAVETLICIMTQLGLVGVGS | 1.86 |
| EASNCFAIRHFENKFAVETLICIMYYCSQACDFS | -0.467 |
| EASNCFAIRHFENKFAVETLICIN | inactive |
| EASNCFAIRHFENKFAVETLICINELV | inactive |
| EASNCFAIRHFENKFAVETLICINSEFPLSGLPC | 3.52 |
| EASNCFAIRHFENKFAVETLICINVA | inactive |
